# The supplement of paper PMC11417369
# ± gives the standard deviation of the averaged measurements. The list shows a part of the results.
# Test system: PfAP2-I AP2 domain 3 (GST-tagged)
# Test: gcPBM binding intensity (ln(normalized median fluorescence intensity)); higher = stronger DNA binding
# How it was run: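 Binding intensity is defined as the maximum Masliner-normalised natural-log median intensity across replicate spots for either probe orientation. It was measured on an Agilent 4 × 180k array of primer-extended double-stranded 36-bp intergenic genomic probes and negative controls, to which GST-tagged P. falciparum DNA-binding domains made in E. coli were applied for 1 h in 1× PBS with 1% milk, 0.2 mg/ml BSA, 0.5% salmon testes DNA and 0.03% Triton X-100. Detection was by Alexa488 anti-GST antibody and scanning at 488 nm.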
row,Sequence,gcPBM binding intensity (ln)
1,TCTTGTTTTAATTTTTATATTATTATTTAGATATAT [CACACA_negctrl_site921],7.71 ± 0.73
2,TACTAAATGATCATATGTACACATGTTTACTTTTTA [XGTACX_site1253],7.72 ± 0.4
3,AATATATATATATATATATATATTTCAATATATAAA [XGTACX_negctrl_site187],8.23 ± 0.3
4,TTAATATATAATAAATTTTTTTTTTTTTTTTTTTTT [CACACA_negctrl_site892],9.345 ± 0.092
5,ATATATTAATATGTGTGTACTTAACCATTCATATGT [XGTACX_site7395],7.76 ± 0.62
6,TTAATATGAAAACTCTGTACCCAACCTTCTTATGGA [XGTACX_site2126],7.54 ± 0.55
7,TATATAAATATATAATGTACGTTTTAAAAATAATAT [XGTACX_site3881],7.96 ± 0.37
8,CTTGGTAGTTTTTTCTTATAATCTAATTATTAATAA [CACACA_negctrl_site153],7.78 ± 0.52
9,TTAACCACTAAAAGTACACACATATATACCTATATA [CACACA_site6026],8.06 ± 0.32
10,TTTTAATAATATGGATGTACATAAAAATAAATAAAT [XGTACX_site7937],8.21 ± 0.42
11,ATATAATAAATGTAGGTGCATAAAAATATTTTGTTA [GTGCAC_site9780],11 ± 0.45
12,TAGTATTATTTTTTTTGTACATATAAATGTAAAATA [XGTACX_site5282],7.72 ± 0.34
13,AAAACATAAATACATACACACATAATATATATTAAG [CACACA_site4239],7.66 ± 0.65
14,TTTTTTTAAAATATGAGTACATAATATTGTAAAAAT [XGTACX_site6536],7.78 ± 0.51
15,AAAGGATATATCCAGAGTACATATTCTGTGTAATAC [XGTACX_site1547],7.66 ± 0.53
16,ATAATTGTTTCTTTCTCCTTTTTATTTCATTTTAAA [CACACA_negctrl_site964],7.93 ± 0.59
17,CACAAAAAAAATTATACACACACACCCATATATATA [CACACA_site8255],8.37 ± 0.68
18,TATTCATCACTTTTTTGTACTTATGGATAAAATTTT [XGTACX_site3349],7.92 ± 0.45
19,TGTCTTATTTATATTACACACTATATGAAAAAATAT [CACACA_site6807],8.02 ± 0.46
20,GAAAAAGATGCGCATACACACAGATGAATAACAAAA [CACACA_site1628],8.03 ± 0.95
21,ATATATATATATATATGTACATAATTAATAGCATAT [XGTACX_site1428],9.2 ± 0.59
22,TATATAATAAGAAAATATGTGCGTAGTTCAGCAAAA [XGTACX_negctrl_site304],8.26 ± 0.74

row,Sequence,gcPBM binding intensity (ln)
1,AAAATAAGAAAACAAATGCACACCATTTATATAGAT [CACACA_site1055],9.23 ± 0.042
2,GAAAAATATATTCTGGTGCATGAATAAAATCATAAA,9.47 ± 0.19
3,AATTGGATAAACCAATTGGATTATAATACGATATAT [CACACA_negctrl_site275],7.46 ± 0.61
4,ATATACAATACAAAAACACACACAAAAAAAGAAAAG [CACACA_site8668],7.81 ± 0.38
5,ATAGTATCTGGTAGCTGTACGAGTCGTAGAGTCTAA [XGTACX_site2539],7.62 ± 0.52
6,ATGTATATTTTTAAAAGTACAGAATTTTCATATGAA [XGTACX_site5754],7.76 ± 0.35
7,TATTTATTTATGTACGCACACAGTTGATATTAATTC [CACACA_site2754],8.37 ± 0.3
8,GTGTAATATGAAATGTGTACACACGCACACACAAAA [XGTACX_site6180],8.32 ± 0.65
9,TAAAATATTTTTTGTAGTACCTTAATATTTTTGAAG [XGTACX_site3048],7.71 ± 0.29
10,TAAATATAATCTAAATGTACATGACATAATTTTTTT [XGTACX_site2856],7.39 ± 0.54
11,TTTCAAAAATGAGTTACACACACACCGATATATATA [CACACA_site5263],8.1 ± 0.7
12,AATAAATACTAAATGGTGCAAAATTTTTTAACACTG,10.8 ± 0.42
13,TATATATATTATAGATGTACTTTCATATATATGTTT [XGTACX_site8189],8.04 ± 0.48
14,AGCCACCATATTTACACACACATCAAAATGTATTAA [CACACA_site1816],8.21 ± 0.47
15,TCAATTAGACGAAAATGTACATATGTATATATTTTT [XGTACX_site5027],7.51 ± 0.57
16,GATATATTTTATATATGTACATACAAGGGTAAATAT [XGTACX_site1202],8.18 ± 0.42
17,AAAATAAACTATAGTACACACTTATTATTATGAAAT [CACACA_site5488],7.92 ± 0.3
18,AAAATATGTAGCTACACACACATAAACAAAATAACA [CACACA_site1007],7.86 ± 0.63
19,ATTTTATAAAGGAAGTGTACTAATAAATTCAAATTA [XGTACX_site3922],7.92 ± 0.4
20,AAAAAAGAATTGTGCACACACAAAAAATGTTCATAA [CACACA_site1103],10.4 ± 0.3
21,TCGATGTTGGTAGGATGTACGGTACCGGTAGTATTT [XGTACX_site4214],7.86 ± 0.68
22,AAGAAAAAATATACTTCACACATTTAATATATAATT [CACACA_site4919],7.72 ± 0.42
